This note sets out measurements from article PMC4336329 (PLoS ONE, 2015).

Screen size: about 310,000 compounds; about 14,000 (4.5%) showed an effect of 50% or more. The effect is printed as a negative number. This is one part of the list.
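Note: peak tail current of the secondary pulse compared with the same well before compound.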

In this assay the target is human ether-à-go-go-related gene (hERG) potassium channel (human, UniProt Q12809). The assay is described as follows: primary screen, population patch clamp on CHO cells stably expressing hERG.
human ether-à-go-go-related gene (hERG) potassium channel, sequence (Q12809 whole entry, looked up): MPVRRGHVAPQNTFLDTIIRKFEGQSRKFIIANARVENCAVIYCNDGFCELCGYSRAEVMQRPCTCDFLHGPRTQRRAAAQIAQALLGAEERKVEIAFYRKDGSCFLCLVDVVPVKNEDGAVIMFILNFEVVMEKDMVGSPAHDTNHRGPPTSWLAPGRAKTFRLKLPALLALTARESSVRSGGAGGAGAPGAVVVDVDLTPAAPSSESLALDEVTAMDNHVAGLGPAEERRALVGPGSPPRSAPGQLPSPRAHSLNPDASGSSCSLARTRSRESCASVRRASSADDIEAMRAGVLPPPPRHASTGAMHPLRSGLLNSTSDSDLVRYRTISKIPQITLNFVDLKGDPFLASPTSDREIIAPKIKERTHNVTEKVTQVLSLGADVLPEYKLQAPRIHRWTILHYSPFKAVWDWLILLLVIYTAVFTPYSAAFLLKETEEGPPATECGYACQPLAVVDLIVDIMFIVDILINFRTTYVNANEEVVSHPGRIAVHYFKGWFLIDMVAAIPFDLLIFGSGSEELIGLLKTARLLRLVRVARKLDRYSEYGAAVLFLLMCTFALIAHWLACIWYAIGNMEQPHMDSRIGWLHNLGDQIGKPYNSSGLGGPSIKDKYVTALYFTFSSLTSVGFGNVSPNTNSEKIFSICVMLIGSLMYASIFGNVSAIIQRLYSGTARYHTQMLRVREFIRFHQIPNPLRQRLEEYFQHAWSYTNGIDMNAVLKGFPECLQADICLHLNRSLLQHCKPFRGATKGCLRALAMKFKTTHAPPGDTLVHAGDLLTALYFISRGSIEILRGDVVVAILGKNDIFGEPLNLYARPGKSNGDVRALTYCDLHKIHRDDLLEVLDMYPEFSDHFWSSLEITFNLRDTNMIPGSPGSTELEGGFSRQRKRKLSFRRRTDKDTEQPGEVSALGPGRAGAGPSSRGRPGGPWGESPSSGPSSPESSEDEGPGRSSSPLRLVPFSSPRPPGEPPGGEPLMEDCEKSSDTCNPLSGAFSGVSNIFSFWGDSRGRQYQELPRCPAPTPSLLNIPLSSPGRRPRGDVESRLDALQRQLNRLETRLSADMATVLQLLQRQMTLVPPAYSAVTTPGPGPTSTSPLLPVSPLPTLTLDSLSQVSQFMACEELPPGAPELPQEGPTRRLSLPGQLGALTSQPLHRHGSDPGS
In the case of `O=C(CCNC(=O)c1ccccc1Cl)Nc1ccc(Cl)c(C(F)(F)F)c1`, the “hERG current change (%, negative = inhibition) at 10uM” value stood at 4.2%.
As to `C/C(=N/NS(=O)(=O)c1ccc(CC(C)C)cc1)c1ccncc1`, the “hERG current change (%, negative = inhibition) at 10uM” value was 10.4%.
The value for `COc1ccccc1NC(=O)Nc1nnc(Cc2ccccc2F)s1` was 9.06%; that for `CC1CCC2(CC1)NC(=O)N(CC(=O)N1CCN(S(=O)(=O)c3ccc4c(c3)CCC4)CC1)C2=O` (stereo not drawn) was -6.01%; that for `COc1cc(CC(=O)OCC(=O)c2c[nH]c3ccccc23)cc(OC)c1OC` was -9.58%.
The same measure for `CCCCN(C(=O)CSc1cc(C)c2ccccc2n1)c1c(N)n(Cc2ccccc2)c(=O)[nH]c1=O`: -23%; for `Cn1nc(-c2ccccc2)c(C(O)c2ccc(Cl)cc2)c1Cl` (stereo not drawn): 1.55%.
In the case of `Cc1cc(C)cc(NC(=O)C2CCCN2S(=O)(=O)c2ccc3c(c2)n(C)c(=O)c(=O)n3C)c1` (stereo not drawn), the “hERG current change (%, negative = inhibition) at 10uM” value is listed as -1.95%.
Regarding `COc1cccc(OC)c1C(=O)Nc1ccc2c(c1)N(S(=O)(=O)c1cccs1)CCC2`, the “hERG current change (%, negative = inhibition) at 10uM” value was 10.3%.
The same measure for `CS(=O)(=O)c1ccc(Cl)c(NC(=O)COC(=O)CCc2c[nH]c3ccccc23)c1`: -38.8%.
The same measure for `COc1ccc2c3c(cccc13)C(=O)N(O)C2=O`: -24%; for `Fc1cccc(NC(=S)NCCCN2CCOCC2)c1`: -0.1%; for `CC1(C)CN(O)CCN1O`: 9.6%.
In the case of `O=C(NC1CCCC1)C1CCN(C(=O)Nc2cccc(Cl)c2)CC1`, the “hERG current change (%, negative = inhibition) at 10uM” value is 11.9%.
The same measure for `Cc1nc2cc(NS(=O)(=O)c3cccc4cccnc34)ccc2s1`: 5%.
As to `COc1ccc(CC(=O)NCc2n[nH]c(=S)n2-c2ccc(F)cc2)cc1`, the “hERG current change (%, negative = inhibition) at 10uM” value is recorded as 41.8%.
The value for `O=C(O)C(=O)O.O=C(c1cccnc1)N1CCN(Cc2ccc3ccccc3c2)CC1` was -31%; that for `CCCc1ccc(NC(=O)C2CCN(c3cnccn3)CC2)cc1` was -18.7%.
The value for `CCCN(CCC)C(=O)c1cc2c(=O)n3cccc(C)c3nc2s1` was -2.75%; that for `CCOC(=O)N/N=C1\CC(C)S(=O)(=O)c2ccc(Cl)cc21` (stereo not drawn) was -3.27%; that for `CN1CCN(S(=O)(=O)c2cccc(C(=O)Oc3ccc(C(C)(C)C)cc3)c2)CC1` was 22%.
The value for `Cc1cc(C)n(-c2ccc(C(=O)OCC(=O)NCc3ccc(Cl)cc3)cc2)n1` was -1.38%; that for `COc1ccc(NC(=O)c2cc(C)no2)cc1OC` was 14.6%; that for `O=C(N/C(=C\c1ccc(F)cc1)C(=O)N1CCOCC1)c1ccccc1` was -32%.
Regarding `O=C1NCCN1c1ccc(CN2CCN(C3CCCCC3)C(CCO)C2)cc1` (stereo not drawn), the “hERG current change (%, negative = inhibition) at 10uM” value is listed as -7.75%.
The same measure for `N#C/C(=C/c1ccc(N2CCCCCC2)o1)c1cccc(F)c1`: -9.82%.
Turning to `C=CCN1C(=O)NC(=O)/C(=C/c2ccc(OC)c(CSc3ccccn3)c2)C1=O`, the “hERG current change (%, negative = inhibition) at 10uM” value came out at 7.56%.
`O=C(CCCc1nc2ccccc2s1)NC1CCOC1=O` (stereo not drawn): the “hERG current change (%, negative = inhibition) at 10uM” value is on record as -5.33%.
As for `Cc1[nH]c2ccccc2c1C(=O)CN1CCC(C(N)=O)(N2CCCCC2)CC1`, the “hERG current change (%, negative = inhibition) at 10uM” value amounted to 5.87%.
Turning to `COc1ccc(S(=O)(=O)Nc2cccc(F)c2)cc1C`, the “hERG current change (%, negative = inhibition) at 10uM” value came to 3.76%.
The same measure for `CCn1cc(C(=O)NCCc2ccccc2)c(=O)c2cc(S(=O)(=O)N(C)C)ccc21`: 7.05%; for `O=C(O)CCc1ccc(-c2ccccc2)n1-c1cccc(C(=O)O)c1`: 21.5%.
The value for `CN(C)c1ccc(C2(c3ccc(N(C)C)cc3)OC(=O)c3cc(N)ccc32)cc1` was 22.1%; that for `Cc1ccc(N2CC(C(=O)Nc3ccc(S(=O)(=O)N4CCOCC4)cc3)CC2=O)cc1Cl` (stereo not drawn) was 11.4%.
With `CSc1cccc(CN2CCN(CCc3ccccc3)C(CCO)C2)c1` (stereo not drawn), the “hERG current change (%, negative = inhibition) at 10uM” value was -80.4%.
The same measure for `O=C1c2cccc3cccc(c23)C(=O)N1OS(=O)(=O)c1ccccc1`: 9.49%; for `COc1ccc(N2CCN(C(=O)NC34CC5CC(CC(C5)C3)C4)CC2)cc1`: -6.95%.
The value for `CCc1[nH]c(C)c(C(C)=O)c1C` was 12.1%; that for `Cc1nnc(SCC(=O)N(C2CCCCC2)C2CCS(=O)(=O)C2)n1N` (stereo not drawn) was 23.7%; that for `CCCS(=O)(=O)N1CCCC(C(=O)NCCc2cccc(C)c2)C1` (stereo not drawn) was 7.6%.
The value for `Cc1c(-n2c(=O)n(Cc3ccccc3)c(=O)c3[nH]cnc32)cccc1S(C)=O` (stereo not drawn) was -4.2%.
On to `Cc1ccc2[nH]c3c(c2c1)SC(C)(C)CC3=O`, for which the “hERG current change (%, negative = inhibition) at 10uM” value amounted to 3.75%.
On to `CCOC(=O)c1sc(S(C)(=O)=O)c2c1CCc1conc1-2`, for which the “hERG current change (%, negative = inhibition) at 10uM” value was determined as 8.59%.
The value for `CC(Sc1nnc(CC(=O)Nc2ccccc2F)n1C)C(=O)Nc1nccs1` (stereo not drawn) was 8.41%; that for `O=C(Nc1cccc(Oc2ccc(C(=O)O)c(C(=O)O)c2)c1)c1ccc(-c2ccccc2)cc1` was -0.459%.
The value for `O=C(NCc1cccnc1)C(=O)Nc1ccc([N+](=O)[O-])cc1` was -21.2%.
As for `O=C(OC(C(=O)NCc1cccs1)c1ccc(F)cc1)c1ccco1` (stereo not drawn), the “hERG current change (%, negative = inhibition) at 10uM” value is given as -3.68%.
The value for `Cc1ccc(CCNC(=O)CS(=O)Cc2nc(-c3ccccc3Cl)oc2C)cc1` (stereo not drawn) was -26.1%.
Turning to `C/C(=N/NC(=O)c1ccc(Br)o1)c1ccc(C)o1`, the “hERG current change (%, negative = inhibition) at 10uM” value was -13.8%.
Regarding `NC(=O)Cn1ccc(O)c(Cc2ccc(Cl)cc2Cl)c1=O`, the “hERG current change (%, negative = inhibition) at 10uM” value was found to be 19%.
The value for `CCOC(=O)c1c(C)oc2c1c(C(c1ccncc1)N1CCOCC1)c(O)c1ccccc12` (stereo not drawn) was 6.38%; that for `Cc1nn(CC(=O)N/N=C/c2cccs2)c(C)c1[N+](=O)[O-]` was 2.74%.
The same measure for `CC(C(=O)Nc1cccc(S(=O)(=O)N2CCOCC2)c1)N1CCN(c2ccc(F)cc2)CC1` (stereo not drawn): -40.3%; for `CC(C)C(=O)C1=Cc2cccc([N+](=O)[O-])c2OC1N1CCOCC1` (stereo not drawn): -3.62%; for `CCOC(=O)c1sc(NC(=O)CN(CC(C)C)CC(C)C)c(C(=O)OCC)c1C`: 0.222%.
The same measure for `O=C(NCCN1CCCCC1)Nc1ccccc1`: -23.2%.
For the molecule `O=S(=O)(c1ccc(Cl)cc1)N1CCCC1c1nc2ccccc2s1` (stereo not drawn), the “hERG current change (%, negative = inhibition) at 10uM” value is reported as -21.4%.
The same measure for `COc1ccccc1NC(=O)Cn1c(O)c(N=NC(=O)c2ccccc2O)c2ccccc21`: 14.2%; for `CCCN1CCN(CCCNC(=O)c2cc3c(=O)oc4ccc(C)cc4c3s2)CC1`: -27.4%.
The value for `CCN(CC)C(=O)CSc1nnc([C@H](Cc2c[nH]c3ccccc23)NC(=O)OC(C)(C)C)o1` was -26.4%; that for `O=C(CCc1ccccc1)NNC(=O)c1ccccc1C(=O)O` was 4.34%; that for `O=C(Cc1ccc(F)cc1)OCC(=O)N1CCN(S(=O)(=O)c2ccc(Cl)cc2)CC1` was -29.9%.
The same measure for `Cl.O=C(c1ccc(Cl)c(S(=O)(=O)N2CCCCCC2)c1)N1CCN(CCO)CC1`: -34.4%; for `Cc1ccc(C(=O)NCc2ccco2)cc1S(=O)(=O)N1CCCCC1`: -18.6%.
As to `O=C(NCC(c1cccnc1)N1CCN(c2ccc(F)cc2)CC1)OCc1ccccc1` (stereo not drawn), the “hERG current change (%, negative = inhibition) at 10uM” value was -56.8%.
The same measure for `O=C(Cn1cc(C(F)(F)F)ccc1=O)NCC1CCCO1` (stereo not drawn): 12.1%; for `CC1CCCCC1NC(=O)C1CCN(S(=O)(=O)c2ccc(-n3cnnn3)cc2)CC1` (stereo not drawn): 5.95%.
The value for `CC1(C)Cc2c(cnn2-c2ccc(F)cc2)C(NC(=O)c2cnccn2)C1` (stereo not drawn) was -37.6%; that for `C=CCNC(=O)C(=O)Nc1cc2c3c(c1)CCC(=O)N3CCC2` was -5.86%; that for `COc1cc(-c2cc(C(=O)NCCc3ccc(S(N)(=O)=O)cc3)c3ccccc3n2)cc(OC)c1OC` was -10.3%.
In the case of `COc1ccccc1-n1c(SCC(=O)O)nnc1-c1ccc(S(=O)(=O)N2CCCCC2)cc1`, the “hERG current change (%, negative = inhibition) at 10uM” value is listed as -3.46%.
The same measure for `CCN(CC)S(=O)(=O)c1ccc(N2CCOCC2)c(NC(=O)COc2ccc(C#N)cc2)c1`: -21.3%; for `Cc1ccc(S(=O)(=O)N2CCN(C(=O)c3ccc(S(=O)(=O)N4CCCC4)cc3)CC2)cc1`: -6.64%; for `Fc1ccccc1-c1csc(-c2cccnc2)n1`: 14.4%.
Take `Nc1c(-c2cccc(Cl)c2)cnn1-c1cccc([N+](=O)[O-])c1`: the “hERG current change (%, negative = inhibition) at 10uM” value is -41.4%.
The value for `COc1ccc(-n2nnc3c(=O)n(CC(=O)NCC4CCCO4)cnc32)cc1` (stereo not drawn) was 2.35%; that for `Cc1cc(C)c2[nH]c(=O)c(=O)[nH]c2c1` was 9.04%.
The same measure for `Cn1c(CNC(=O)OC(C)(C)C)n[nH]c1=S`: 15.2%; for `O=C(COc1ccc(Cl)cc1)NCc1ccncc1`: -14%.
The same measure for `COc1ccc(OC)c(C(O)c2coc3ccc(O)c(CN4CCOCC4)c23)c1` (stereo not drawn): -11.4%; for `OC(CNCc1ccc(F)cc1)(c1ccc(F)cc1)c1ccc(F)cc1`: -33.7%.
Take `O=C(NCCN1CCOCC1)C1CCN(S(=O)(=O)N2CCCCC2)CC1`: the “hERG current change (%, negative = inhibition) at 10uM” value amounted to 11.1%.
The same measure for `O=C(CN1CCN(Cc2ccccc2F)C1=O)NCc1ccco1`: 2.59%; for `CCOC(=O)c1ccc(-c2c(-c3ccccc3OC)oc3ccccc23)cc1F`: 11.6%.
The same measure for `C[N+](C)(C)CCCCCC[N+](C)(C)C.[Br-]`: 4.51%; for `COc1ccc(OC)c(-c2cc(C(F)(F)F)c3c(n2)sc2c(O)cc(=O)[nH]c23)c1`: 18.9%.
On to `COc1cccc(Cn2c(=O)c3ccccc3n3nc(C)cc23)c1`, for which the “hERG current change (%, negative = inhibition) at 10uM” value is 11.4%.
